Results published in PubChem BioAssay AID1745853 (National Center for Advancing Translational Sciences (NCATS), 2022).
Some of the results follow. These are further read-outs of the screen, such as a control signal, another cell line or another target. No call is given for them.

Experiments:
Test in all cases: Primary Screen for Target Class Profiling of Small Molecule Inhibitors of Methyltransferases
[1] = target: Glycine N-methyltransferase (Homo sapiens) (UniProt Q14749); settings: purified enzyme, MTase-Glo SAH luminescence; measured here: GNMT inhibition; at 40 µM; stronger effect = lower value
Procedure, shortened: (§1)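 Each enzyme was assayed with SAM and its substrate. SAH formation detected by MTase-Glo luminescence; single-point 40 uM screen[…].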

[2] = target: Guanidinoacetate N-methyltransferase (Homo sapiens) (UniProt Q14353); settings: purified enzyme, MTase-Glo SAH luminescence; measured here: GAMT inhibition; at 40 µM; stronger effect = lower value
Procedure, shortened: as §1

[3] = target: Histamine N-methyltransferase (Homo sapiens) (UniProt P50135); settings: purified enzyme, MTase-Glo SAH luminescence; measured here: HNMT inhibition; at 40 µM; stronger effect = lower value
Procedure, shortened: as §1

[4] = target: Nicotinamide N-methyltransferase (Homo sapiens) (UniProt P40261); settings: purified enzyme, MTase-Glo SAH luminescence; measured here: NNMT inhibition; at 40 µM; stronger effect = lower value
Procedure, shortened: as §1

[5] = target: Phenylethanolamine N-methyltransferase (Homo sapiens) (UniProt P11086); settings: purified enzyme, MTase-Glo SAH luminescence; measured here: PNMT inhibition; at 40 µM; stronger effect = lower value
Procedure, shortened: as §1
On the % scale 0 is the no-effect control and ±100 the full control effect.

| SMILES | activity change, negative = inhibition [1] [%] | activity change, negative = inhibition [2] [%] | activity change, negative = inhibition [3] [%] | activity change, negative = inhibition [4] [%] | activity change, negative = inhibition [5] [%] |
| --- | --- | --- | --- | --- | --- |
| Cc1c(Cl)cccc1NC(=O)Cn1c(=O)nc(N(C)c2ccccc2)c2ccccc21 | -0.615 | 0 | -7.77 | -2.18 | -2.31 |
| CCCN1C(=O)c2cc(C(=O)NCCN3CCN(CC)CC3)nn2CC1(C)C(=O)NC1CCCC1 (stereo not given) | 1.64 | 3.04 | -0.914 | -1.83 | -1.99 |
| O=C(c1ccc(Cl)cc1)N1CC2(CCN(CC3CC3)CC2)Cc2ccccc21 | -3.44 | -2.16 | -82.7 | -20.9 | -5.5 |
| CCC(C)NC(=O)c1ccc2c(=O)n(C)c3nn(CC(=O)Nc4ccc(C)cc4Cl)c(=O)n3c2c1 (stereo not given) | 9.29 | 4.13 | 11.6 | 5.23 | 6.12 |
| COc1cc([C@@H]2c3cc4c(cc3[C@H](O)[C@@H](CO)[C@@H]2C(=O)NC(C)C)OCO4)cc(OC)c1OC | -3.92 | -11.1 | -4.17 | -14.5 | -10.7 |
| Cc1cc(C)cc(N2CCN(c3cc(C4CC(O)C4)ncn3)CC2=O)c1 (stereo not given) | -0.106 | 1.27 | 0.692 | 0.229 | 0.259 |
| Cc1cc(C)cc(NC(=O)N2CCn3cccc3C2C)c1 (stereo not given) | -9.67 | 0.863 | -18.7 | -17.4 | -9.4 |
| CCc1cn(C[C@@H](C(=O)O)N(CC)CC)c(=O)[nH]c1=O | -1.8 | -2.32 | -1.65 | 2.17 | -4.73 |
| Cc1ccc(CN2C(=O)c3ccc(-c4ccco4)n3CC2(C)C(=O)NC2CCCCCCC2)o1 (stereo not given) | -5.15 | 0 | 4 | -13.9 | 1.7 |
| CCn1cc(S(=O)(=O)N2CCOc3ccc(CN4CCCCCC4)cc3C2)cn1 | -6.81 | -6.12 | -34 | -6.3 | -4.41 |
| CCOc1ccc(-c2cc3n(n2)CC(C)(C(=O)NC2CCCCC2)N(Cc2ccccn2)C3=O)cc1 (stereo not given) | -2.82 | 0.801 | 1.43 | 0.746 | -2.35 |
| COc1cccc(CCC(=O)N2CCCC(CN3CCCC3)CC2)c1 (stereo not given) | -4.99 | 1.42 | -28.4 | -4.65 | 11.4 |
| COc1ccc(C(=O)Cn2nc3n(C)c(=O)c4ccc(C(=O)NC5CCCC5)cc4n3c2=O)cc1 | 2.32 | 3.7 | 1.07 | -0.994 | 0.313 |
| COC[C@@H]1CCCN1Cc1cc2cc3c(cc2[nH]c1=O)OCO3 | -2.83 | -0.448 | -1.65 | -0.196 | 9.7 |
| Cc1ccc2oc([C@H]3CCN(C(=O)C4CC4)C3)nc2c1 | -4.07 | -3.42 | -2.63 | -11.6 | -23.2 |
| COc1cccc(NS(=O)(=O)c2cc3c(cc2Cl)n(C)c(=O)n3C)c1 | 1.68 | 0 | -1.29 | 0.852 | 1.31 |
| COc1ccc(N(C(=O)c2ccccc2)S(=O)(=O)c2ccc3c(c2)n(C)c(=O)n3C)cc1 | -7.48 | 4.37 | -8.56 | -7.9 | -3.6 |
| c1cc(NCCc2c[nH]c3ccccc23)cc(Nc2ccncc2)c1 | -44.1 | -16.6 | -94.4 | -53.3 | -30.9 |
| CCCCN1C(=O)c2cc(C(=O)NCc3cc(OC)ccc3OC)nn2CC1(C)C(=O)NC1CCCC1 (stereo not given) | -1.71 | 0.04 | -1.65 | -8.55 | -4.45 |
| CCCN1C(=O)c2cc(C(=O)NCc3ccc(Cl)cc3)nn2CC1(C)C(=O)NC1CCCC1 (stereo not given) | -0.237 | 1.72 | -6.15 | -2.48 | -1.5 |

| SMILES | activity change, negative = inhibition [1] [%] | activity change, negative = inhibition [2] [%] | activity change, negative = inhibition [3] [%] | activity change, negative = inhibition [4] [%] | activity change, negative = inhibition [5] [%] |
| --- | --- | --- | --- | --- | --- |
| COc1ccc(CCN2CC(NC(=O)Cn3ccc(C)n3)CC2=O)cc1 (stereo not given) | -7.35 | -12.7 | -5.98 | -17.3 | -11.6 |
| CCCN1C(=O)c2c(C(=O)NCCCc3ccccc3)ncn2CC1(C)C(=O)NC1CCCC1 (stereo not given) | 0.29 | 0.218 | 1.38 | 4.01 | 6.49 |
| CCCN1CCN(C(=O)c2cc3n(n2)CC(C)(C(=O)NC2CCCCCC2)N(C)C3=O)CC1 (stereo not given) | 2.15 | 1.01 | 0.989 | 0.394 | -2.22 |
| CCOC(=O)c1cc2n(n1)CC(C)(C(=O)NCCC(C)C)N(c1ccccc1C)C2=O (stereo not given) | 4.08 | -38.9 | 4.56 | 8.13 | -0.251 |
| O=C(Cn1c(=O)n2nc(-c3cccc(F)c3)nc2c2ccccc21)N1CCN(c2ccc(F)cc2)CC1 | 1.26 | 3.15 | -0.681 | -1.26 | -1.53 |
| N#Cc1ccc(CN2CCC3(CC(c4cccc(C(F)(F)F)c4)=NO3)C2)cc1 (stereo not given) | -5.82 | -7.26 | -2.91 | -9.27 | -12.2 |
| CCC/C=C/c1cc2c(C=O)c(O)c(CC=C(C)C)cc2o1 | -4.69 | -15.3 | 3.79 | -41.5 | -13.7 |
| Cc1nn(CCO)cc1CN1CCC2(CC1)C(C(=O)O)CC(=O)N2C (stereo not given) | -2.31 | -5.37 | 1.85 | -0.545 | 2.72 |
| CC(C)c1cc(C(=O)N2Cc3ccc(CN4CCN(C)CC4)cc3C2)c(O)cc1O | -3.41 | -4.6 | -32 | -23 | -3.37 |
| COc1ccc(CCNC(=O)CCc2nnc3n(Cc4ccccc4)c(=O)c4ccccc4n23)cc1OC | -11.5 | 0 | 8.28 | -7.47 | 1.65 |
| Cc1cnc(CCNC(=O)c2ccc(C#N)cc2)n1C1CC1 | -3.6 | -8.03 | -12.3 | -9.68 | -10.6 |
| O=C(Nc1ccc(=O)n2c1[C@@H]1C[C@@H](CN(C(=O)COc3ccccc3)C1)C2)c1ccccc1 | -5.42 | -4.62 | -3.13 | -8.05 | -5.58 |
| CN1CCC(COc2cnc(-c3cccc(Cn4nc(-c5cccc(C#N)c5)ccc4=O)c3)nc2)CC1 | -5.54 | 11.6 | -41.9 | -18.5 | -1.57 |
| Cc1cccc(CSc2nnc3n(CCCOC(C)C)c(=O)c4ccccc4n23)c1 | -7.18 | 0 | -2.14 | -7.98 | 1.9 |
| Cc1ccc(OCC(=O)NCc2c(C)ncc3c2CCNC3)cc1C | -1.38 | 0.71 | -3.45 | -1.79 | -2.41 |
| O=C(NCCc1ccc(Cl)cc1)c1ccc2c(=O)nc3c(-c4cccc(F)c4)n[nH]n3c2c1 | 2.64 | -1.22 | 3.83 | -6.05 | -0.276 |
| COc1ccccc1OC1(C(=O)O)CCN(c2ncnc(C)c2C)CC1 | -0.244 | 2.9 | 1.59 | -2.7 | -2.37 |
| CCCCOc1ccc(CNC(=O)c2cc3n(n2)CC(C)(C(=O)NC2CCCC2)N(CC)C3=O)cc1 (stereo not given) | 3.21 | 0 | 5.44 | 3.95 | 1.37 |
| CN(Cc1ccc2nsnc2c1)Cc1cc2n(n1)CCCNC2 | -1.22 | 3.96 | -0.681 | -2.42 | -5.61 |
